Laboratory results from article PMC12820563.
Some of the results follow. The list includes weakly bound sequences.

target: T1, MBP-FoxP3dN (UniProt Q99JB6); test: PD-seq (MBP pull-down with sequencing); conditions: 20 mM Tris-HCl pH 7.5, 100 mM NaCl, 1.5 mM MgCl2, 0.4 uM protein, 0.1 uM dsDNA library, 30 min, room temperature, amylose pull-down; high values mean tight binding; double strand, one strand shown
T1 sequence: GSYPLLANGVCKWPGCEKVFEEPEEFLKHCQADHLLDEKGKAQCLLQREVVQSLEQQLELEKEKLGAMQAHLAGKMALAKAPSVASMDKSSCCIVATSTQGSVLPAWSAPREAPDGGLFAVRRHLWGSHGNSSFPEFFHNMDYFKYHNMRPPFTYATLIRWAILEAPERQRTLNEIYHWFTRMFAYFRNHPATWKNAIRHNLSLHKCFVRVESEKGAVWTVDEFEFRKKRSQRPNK

Sequence	binding signal (RPM ratio (pull-down/input))
GATGATTGTTCTCCCAGCTGATGAATTCAGCCGATCGAGTAAACAAATTTTCCTAATCTTTCTGTTCAAGCGCCATCTAC	0.392
GATGATTGTTCTCCCAGCTGATGAATTCTGCGCTTCGAGTAAACAAATTTTCCTAATCTTTCTGTTCAAGCGCCATCTAC	1.43
GATGATTGTTCTCCCAGCTGATGAATTTGTTGTTTCGAGTAAACAAATTTTCCTAATCTTTCTGTTCAAGCGCCATCTAC	7.66
GATGATTGTTCTCCCAGCTGATGAATTACCACTCTCGAGTAAACAAATTTTCCTAATCTTTCTGTTCAAGCGCCATCTAC	0.474
GATGATTGTTCTCCCAGCTGATGAATTCGTCCTGTCGAGTAAACAAATTTTCCTAATCTTTCTGTTCAAGCGCCATCTAC	0.644
GATGATTGTTCTCCCAGCTGATGAATTCGTGTTCTCGAGTAAACAAATTTTCCTAATCTTTCTGTTCAAGCGCCATCTAC	1.84
GATGATTGTTCTCCCAGCTGATGAATTCCCTAGCTCGAGTAAACAAATTTTCCTAATCTTTCTGTTCAAGCGCCATCTAC	0.19
GATGATTGTTCTCCCAGCTGATGAATTCGTACATTCGAGTAAACAAATTTTCCTAATCTTTCTGTTCAAGCGCCATCTAC	0.579
GATGATTGTTCTCCCAGCTGATGAATTCTTCCATTCGAGTAAACAAATTTTCCTAATCTTTCTGTTCAAGCGCCATCTAC	0.269
GATGATTGTTCTCCCAGCTGATGAATTTGCGCTGTCGAGTAAACAAATTTTCCTAATCTTTCTGTTCAAGCGCCATCTAC	0.911
GATGATTGTTCTCCCAGCTGATGAATTATAGTTCTCGAGTAAACAAATTTTCCTAATCTTTCTGTTCAAGCGCCATCTAC	0.808
GATGATTGTTCTCCCAGCTGATGAATTTCTGAGCTCGAGTAAACAAATTTTCCTAATCTTTCTGTTCAAGCGCCATCTAC	0.199
GATGATTGTTCTCCCAGCTGATGAATTATGAACTTCGAGTAAACAAATTTTCCTAATCTTTCTGTTCAAGCGCCATCTAC	0.331
GATGATTGTTCTCCCAGCTGATGAATTCCCTCTATCGAGTAAACAAATTTTCCTAATCTTTCTGTTCAAGCGCCATCTAC	0.317
GATGATTGTTCTCCCAGCTGATGAATTGCTACGATCGAGTAAACAAATTTTCCTAATCTTTCTGTTCAAGCGCCATCTAC	0.59
GATGATTGTTCTCCCAGCTGATGAATTACATTTCTCGAGTAAACAAATTTTCCTAATCTTTCTGTTCAAGCGCCATCTAC	0.805
GATGATTGTTCTCCCAGCTGATGAATTACGGTAGTCGAGTAAACAAATTTTCCTAATCTTTCTGTTCAAGCGCCATCTAC	0.513
GATGATTGTTCTCCCAGCTGATGAATTCTTTATGTCGAGTAAACAAATTTTCCTAATCTTTCTGTTCAAGCGCCATCTAC	0.404
GATGATTGTTCTCCCAGCTGATGAATTTCATGGCTCGAGTAAACAAATTTTCCTAATCTTTCTGTTCAAGCGCCATCTAC	0.378
GATGATTGTTCTCCCAGCTGATGAATTTACGCGTTCGAGTAAACAAATTTTCCTAATCTTTCTGTTCAAGCGCCATCTAC	1.62

Sequence	binding signal (RPM ratio (pull-down/input))
GATGATTGTTCTCCCAGCTGATGAATTCCTCAACTCGAGTAAACAAATTTTCCTAATCTTTCTGTTCAAGCGCCATCTAC	0.243
GATGATTGTTCTCCCAGCTGATGAATTAGAGAGCTCGAGTAAACAAATTTTCCTAATCTTTCTGTTCAAGCGCCATCTAC	0.242
GATGATTGTTCTCCCAGCTGATGAATTATAAGCGTCGAGTAAACAAATTTTCCTAATCTTTCTGTTCAAGCGCCATCTAC	0.55
GATGATTGTTCTCCCAGCTGATGAATTTACCACATCGAGTAAACAAATTTTCCTAATCTTTCTGTTCAAGCGCCATCTAC	0.853
GATGATTGTTCTCCCAGCTGATGAATTTCACTTCTCGAGTAAACAAATTTTCCTAATCTTTCTGTTCAAGCGCCATCTAC	0.425
GATGATTGTTCTCCCAGCTGATGAATTGCGCTATTCGAGTAAACAAATTTTCCTAATCTTTCTGTTCAAGCGCCATCTAC	3.18
GATGATTGTTCTCCCAGCTGATGAATTATTGTGTTCGAGTAAACAAATTTTCCTAATCTTTCTGTTCAAGCGCCATCTAC	2.16
GATGATTGTTCTCCCAGCTGATGAATTTTTCAGTTCGAGTAAACAAATTTTCCTAATCTTTCTGTTCAAGCGCCATCTAC	0.248
GATGATTGTTCTCCCAGCTGATGAATTGAGTGTTTCGAGTAAACAAATTTTCCTAATCTTTCTGTTCAAGCGCCATCTAC	1.69
GATGATTGTTCTCCCAGCTGATGAATTGTGTGGGTCGAGTAAACAAATTTTCCTAATCTTTCTGTTCAAGCGCCATCTAC	1.95
GATGATTGTTCTCCCAGCTGATGAATTTGAAGCGTCGAGTAAACAAATTTTCCTAATCTTTCTGTTCAAGCGCCATCTAC	0.55
GATGATTGTTCTCCCAGCTGATGAATTAGAAAAATCGAGTAAACAAATTTTCCTAATCTTTCTGTTCAAGCGCCATCTAC	0.154
GATGATTGTTCTCCCAGCTGATGAATTCTATGTTTCGAGTAAACAAATTTTCCTAATCTTTCTGTTCAAGCGCCATCTAC	1.69
GATGATTGTTCTCCCAGCTGATGAATTTATAACATCGAGTAAACAAATTTTCCTAATCTTTCTGTTCAAGCGCCATCTAC	0.836
GATGATTGTTCTCCCAGCTGATGAATTGTAGGTATCGAGTAAACAAATTTTCCTAATCTTTCTGTTCAAGCGCCATCTAC	0.962
GATGATTGTTCTCCCAGCTGATGAATTGCAGTCTTCGAGTAAACAAATTTTCCTAATCTTTCTGTTCAAGCGCCATCTAC	0.93
GATGATTGTTCTCCCAGCTGATGAATTCCGCAGCTCGAGTAAACAAATTTTCCTAATCTTTCTGTTCAAGCGCCATCTAC	2.1
GATGATTGTTCTCCCAGCTGATGAATTAAACAGCTCGAGTAAACAAATTTTCCTAATCTTTCTGTTCAAGCGCCATCTAC	0.418
GATGATTGTTCTCCCAGCTGATGAATTGAACAACTCGAGTAAACAAATTTTCCTAATCTTTCTGTTCAAGCGCCATCTAC	0.424
GATGATTGTTCTCCCAGCTGATGAATTCGGGGGATCGAGTAAACAAATTTTCCTAATCTTTCTGTTCAAGCGCCATCTAC	0.323
